# Laboratory results taken from the supplement of paper PMC8728848.
# Some of the results follow.
# B1: PX9961X-pdi-531-24-531 (Parabacteroides distasonis) (protein)
# chain: DLTEEIHSSVIAENYYNNAGEVMAAMMRPWGHFCGTMQVAQSPWSCNELSSDCAAWPQKGRHGYDNGDWIRLHRHQWIPTDGQVVDAWKKLFEGIGYANNFLTDTENIDFEALQVPMSKAQAQAEMRVYRAYCYWYVMDMFGTAPICEKIGEINPSSKSRAELFAWIEKELNESIPSLSESKTETYGRVSKWGAYALLARLYLNAEIYTGQARWDDCIAACDELAKGGFALDKKWNDTFRADNDKRSTEIIWSIVYDEVYAKGMGWYQRWLHYAHQTGWDLQSGPWNGLVTQPTFYDSFADNDLRKIEGFLIGKQYPRKVDENGNYYYDTTAEPLKGSEEYNGQDLVFVNYIKSMTEGEENSGARSIKYEIQPGTTGDMNNDWVMFRYSEVIYNKAEALMRKNGGKATQEVVDMINSVRQRSFKAEDWEKAKYTTATLTMDEFLAEKGREFAFEGIRRTDLVRFNKFVTTSWWDKTASNEPKRNIFPIPQRQLDANANLSPNEANSLF
# Columns and labels:
# Experiment in all cases: glycan array binding signal (z-score within array); higher = stronger binding
# Details in all cases: glycan notation: IUPAC condensed, linker removed
# Gal(b1-4)Glc = molecular target: Gal(b1-4)Glc
# Outline: (§1)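 Columns mapping to the same glycan were averaged after glycan names were converted to IUPAC-condensed notation. The data come from 3228 arrays in the Consortium for Functional Glycomics database, limited to those with an available protein sequence. Binding is reported as a within-array Z-score averaged across arrays of one protein sequence and across linkers.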
# Gal(b1-4)Glc6S = molecular target: Gal(b1-4)Glc6S
# Outline: as §1
# Gal(b1-4)GlcNAc = molecular target: Gal(b1-4)GlcNAc
# Outline: as §1
# [1] = molecular target: Gal(b1-4)GlcNAc(a1-6)Gal(b1-4)GlcNAc
# Outline: as §1
# Gal(b1-4)GlcNAc(b1-2)Man = molecular target: Gal(b1-4)GlcNAc(b1-2)Man
# Outline: as §1
# [2] = molecular target: Gal(b1-4)GlcNAc(b1-2)Man(a1-3)Man(b1-4)GlcNAc(b1-4)GlcNAc
# Outline: as §1
# [3] = molecular target: Gal(b1-4)GlcNAc(b1-2)Man(a1-3)[Gal(b1-4)GlcNAc(b1-2)Man(a1-6)]Man(b1-4)GlcNAc(b1-4)GlcNAc
# Outline: as §1
# [4] = molecular target: Gal(b1-4)GlcNAc(b1-2)Man(a1-3)[Gal(b1-4)GlcNAc(b1-2)Man(a1-6)]Man(b1-4)GlcNAc(b1-4)[Fuc(a1-6)]GlcNAc
# Outline: as §1
# [5] = molecular target: Gal(b1-4)GlcNAc(b1-2)Man(a1-3)[Gal(b1-4)GlcNAc(b1-2)Man(a1-6)][Gal(b1-4)GlcNAc(b1-4)]Man(b1-4)GlcNAc(b1-4)[Fuc(a1-6)]GlcNAc
# Outline: as §1
# [6] = molecular target: Gal(b1-4)GlcNAc(b1-2)Man(a1-3)[Gal(b1-4)GlcNAc(b1-2)Man(a1-6)][GlcNAc(b1-4)]Man(b1-4)GlcNAc(b1-4)[Fuc(a1-6)]GlcNAc
# Outline: as §1
# [7] = molecular target: Gal(b1-4)GlcNAc(b1-2)Man(a1-3)[GlcNAc(b1-2)Man(a1-6)]Man(b1-4)GlcNAc(b1-4)GlcNAc
# Outline: as §1
# [8] = molecular target: Gal(b1-4)GlcNAc(b1-2)Man(a1-3)[GlcNAc(b1-4)][Gal(b1-4)GlcNAc(b1-2)Man(a1-6)]Man(b1-4)GlcNAc(b1-4)GlcNAc
# Outline: as §1
# [9] = molecular target: Gal(b1-4)GlcNAc(b1-2)Man(a1-3)[Man(a1-6)]Man(b1-4)GlcNAc(b1-4)GlcNAc
# Outline: as §1
# [10] = molecular target: Gal(b1-4)GlcNAc(b1-2)Man(a1-6)Man(b1-4)GlcNAc(b1-4)GlcNAc
# Outline: as §1
# [11] = molecular target: Gal(b1-4)GlcNAc(b1-2)Man(a1-6)[GlcNAc(b1-2)Man(a1-3)]Man(b1-4)GlcNAc(b1-4)GlcNAc
# Outline: as §1
# [12] = molecular target: Gal(b1-4)GlcNAc(b1-2)Man(a1-6)[Man(a1-3)]Man(b1-4)GlcNAc(b1-4)GlcNAc
# Outline: as §1
# [13] = molecular target: Gal(b1-4)GlcNAc(b1-2)[Gal(b1-4)GlcNAc(b1-4)]Man(a1-3)[Gal(b1-4)GlcNAc(b1-2)Man(a1-6)]Man(b1-4)GlcNAc(b1-4)GlcNAc
# Outline: as §1
# [14] = molecular target: Gal(b1-4)GlcNAc(b1-2)[Gal(b1-4)GlcNAc(b1-4)]Man(a1-3)[Gal(b1-4)GlcNAc(b1-2)[Gal(b1-4)GlcNAc(b1-6)]Man(a1-6)]Man(b1-4)GlcNAc(b1-4)GlcNAc
# Outline: as §1
# [15] = molecular target: Gal(b1-4)GlcNAc(b1-2)[Gal(b1-4)GlcNAc(b1-4)]Man(a1-3)[GlcNAc(b1-4)][Gal(b1-4)GlcNAc(b1-2)Man(a1-6)]Man(b1-4)GlcNAc(b1-4)GlcNAc
# Outline: as §1
# [16] = molecular target: Gal(b1-4)GlcNAc(b1-2)[Gal(b1-4)GlcNAc(b1-4)]Man(a1-3)[GlcNAc(b1-4)][Gal(b1-4)GlcNAc(b1-2)[Gal(b1-4)GlcNAc(b1-6)]Man(a1-6)]Man(b1-4)GlcNAc(b1-4)GlcNAc
# Outline: as §1
# [17] = molecular target: Gal(b1-4)GlcNAc(b1-2)[Gal(b1-4)GlcNAc(b1-6)]Man(a1-6)[Gal(b1-4)GlcNAc(b1-2)Man(a1-3)]Man(b1-4)GlcNAc(b1-4)GlcNAc
# Outline: as §1
# [18] = molecular target: Gal(b1-4)GlcNAc(b1-2)[Gal(b1-4)GlcNAc(b1-6)]Man(a1-6)[Gal(b1-4)GlcNAc(b1-2)Man(a1-3)]Man(b1-4)GlcNAc(b1-4)[Fuc(a1-6)]GlcNAc
# Outline: as §1
# [19] = molecular target: Gal(b1-4)GlcNAc(b1-2)[Gal(b1-4)GlcNAc(b1-6)]Man(a1-6)[GlcNAc(b1-4)][Gal(b1-4)GlcNAc(b1-2)Man(a1-3)]Man(b1-4)GlcNAc(b1-4)GlcNAc
# Outline: as §1
# [20] = molecular target: Gal(b1-4)GlcNAc(b1-2)[Gal(b1-4)GlcNAc(b1-6)]Man(a1-6)[GlcNAc(b1-4)][Gal(b1-4)GlcNAc(b1-2)[Gal(b1-4)GlcNAc(b1-4)]Man(a1-3)]Man(b1-4)GlcNAc(b1-4)[Fuc(a1-6)]GlcNAc
# Outline: as §1
# [21] = molecular target: Gal(b1-4)GlcNAc(b1-3)Gal(b1-3)GalNAc
# Outline: as §1
# [22] = molecular target: Gal(b1-4)GlcNAc(b1-3)Gal(b1-3)GlcNAc
# Outline: as §1
# [23] = molecular target: Gal(b1-4)GlcNAc(b1-3)Gal(b1-4)Glc
# Outline: as §1
# [24] = molecular target: Gal(b1-4)GlcNAc(b1-3)Gal(b1-4)GlcNAc
# Outline: as §1
# [25] = molecular target: Gal(b1-4)GlcNAc(b1-3)Gal(b1-4)GlcNAc(b1-2)Man(a1-3)[Gal(b1-4)GlcNAc(b1-3)Gal(b1-4)GlcNAc(b1-2)Man(a1-6)]Man(b1-4)GlcNAc(b1-4)GlcNAc
# Outline: as §1
# [26] = molecular target: Gal(b1-4)GlcNAc(b1-3)Gal(b1-4)GlcNAc(b1-2)Man(a1-3)[Gal(b1-4)GlcNAc(b1-3)Gal(b1-4)GlcNAc(b1-2)Man(a1-6)]Man(b1-4)GlcNAc(b1-4)[Fuc(a1-6)]GlcNAc
# Outline: as §1
# [27] = molecular target: Gal(b1-4)GlcNAc(b1-3)Gal(b1-4)GlcNAc(b1-2)[Gal(b1-4)GlcNAc(b1-3)Gal(b1-4)GlcNAc(b1-6)]Man(a1-6)[Gal(b1-4)GlcNAc(b1-3)Gal(b1-4)GlcNAc(b1-2)Man(a1-3)]Man(b1-4)GlcNAc(b1-4)GlcNAc
# Outline: as §1
# [28] = molecular target: Gal(b1-4)GlcNAc(b1-3)Gal(b1-4)GlcNAc(b1-2)[Gal(b1-4)GlcNAc(b1-3)Gal(b1-4)GlcNAc(b1-6)]Man(a1-6)[Gal(b1-4)GlcNAc(b1-3)Gal(b1-4)GlcNAc(b1-2)Man(a1-3)]Man(b1-4)GlcNAc(b1-4)[Fuc(a1-6)]GlcNAc
# Outline: as §1
# [29] = molecular target: Gal(b1-4)GlcNAc(b1-3)Gal(b1-4)GlcNAc(b1-3)Gal(b1-4)GlcNAc
# Outline: as §1
# [30] = molecular target: Gal(b1-4)GlcNAc(b1-3)Gal(b1-4)GlcNAc(b1-3)Gal(b1-4)GlcNAc(b1-2)Man(a1-3)[Gal(b1-4)GlcNAc(b1-3)Gal(b1-4)GlcNAc(b1-3)Gal(b1-4)GlcNAc(b1-2)Man(a1-6)]Man(b1-4)GlcNAc(b1-4)GlcNAc
# Outline: as §1
# [31] = molecular target: Gal(b1-4)GlcNAc(b1-3)Gal(b1-4)GlcNAc(b1-3)Gal(b1-4)GlcNAc(b1-2)Man(a1-3)[Gal(b1-4)GlcNAc(b1-3)Gal(b1-4)GlcNAc(b1-3)Gal(b1-4)GlcNAc(b1-2)Man(a1-6)]Man(b1-4)GlcNAc(b1-4)[Fuc(a1-6)]GlcNAc
# Outline: as §1
# [32] = molecular target: Gal(b1-4)GlcNAc(b1-3)Gal(b1-4)GlcNAc(b1-3)Gal(b1-4)GlcNAc(b1-2)[Gal(b1-4)GlcNAc(b1-3)Gal(b1-4)GlcNAc(b1-3)Gal(b1-4)GlcNAc(b1-6)]Man(a1-6)[Gal(b1-4)GlcNAc(b1-3)Gal(b1-4)GlcNAc(b1-3)Gal(b1-4)GlcNAc(b1-2)Man(a1-3)]Man(b1-4)GlcNAc(b1-4)[Fuc(a1-6)]GlcNAc
# Outline: as §1
# [33] = molecular target: Gal(b1-4)GlcNAc(b1-3)Gal(b1-4)GlcNAc(b1-3)Gal(b1-4)GlcNAc(b1-3)Gal(b1-4)GlcNAc(b1-2)Man(a1-3)[Gal(b1-4)GlcNAc(b1-3)Gal(b1-4)GlcNAc(b1-3)Gal(b1-4)GlcNAc(b1-3)Gal(b1-4)GlcNAc(b1-2)Man(a1-6)]Man(b1-4)GlcNAc(b1-4)GlcNAc
# Outline: as §1
binder,measurement,setting,value
B1,glycan array binding signal (z-score),Gal(b1-4)Glc,0.099
same,glycan array binding signal (z-score),Gal(b1-4)Glc6S,1.04
same,glycan array binding signal (z-score),Gal(b1-4)GlcNAc,-0.188
same,glycan array binding signal (z-score),[1],0.827
same,glycan array binding signal (z-score),Gal(b1-4)GlcNAc(b1-2)Man,0.413
same,glycan array binding signal (z-score),[2],0.054
same,glycan array binding signal (z-score),[3],-0.85
same,glycan array binding signal (z-score),[4],0.562
same,glycan array binding signal (z-score),[5],-0.513
same,glycan array binding signal (z-score),[6],-0.474
same,glycan array binding signal (z-score),[7],-0.26
same,glycan array binding signal (z-score),[8],0.027
same,glycan array binding signal (z-score),[9],0.551
same,glycan array binding signal (z-score),[10],-0.241
same,glycan array binding signal (z-score),[11],0.345
same,glycan array binding signal (z-score),[12],0.523
same,glycan array binding signal (z-score),[13],0.522
same,glycan array binding signal (z-score),[14],-0.365
same,glycan array binding signal (z-score),[15],-0.689
same,glycan array binding signal (z-score),[16],0.12
same,glycan array binding signal (z-score),[17],0.351
same,glycan array binding signal (z-score),[18],1.04
same,glycan array binding signal (z-score),[19],1.62
same,glycan array binding signal (z-score),[20],0.08
same,glycan array binding signal (z-score),[21],-0.321
same,glycan array binding signal (z-score),[22],-0.526
same,glycan array binding signal (z-score),[23],-0.243
same,glycan array binding signal (z-score),[24],-0.417
same,glycan array binding signal (z-score),[25],0.687
same,glycan array binding signal (z-score),[26],-0.13
same,glycan array binding signal (z-score),[27],2.17
same,glycan array binding signal (z-score),[28],1.85
same,glycan array binding signal (z-score),[29],-0.056
same,glycan array binding signal (z-score),[30],0.855
same,glycan array binding signal (z-score),[31],0.433
same,glycan array binding signal (z-score),[32],1.3
same,glycan array binding signal (z-score),[33],0.298
